Measurements taken from article PMC12040169 (PLOS Biology, 2025).
Some of the results follow.

Tested on: T1, C. trachomatis L2/434/Bu expressing GFP (CTL2-GFP)
T1 construct: L2/434/Bu GFP intracellular growth in HeLa cells
Parameters: species or system HeLa; C. trachomatis total inclusion area by high-content imaging, normalised to DMSO
Settings: total inclusion area; 28.5 h, 10 µM; inhibitor
Procedure, shortened: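 High-content images of fixed, Hoechst-stained infected cultures supply inclusion area and count (growth) plus nuclei number (viability), complementing bulk GFP/resorufin fluorescence. MIC determination is unchanged from the primary assay.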

Structure (SMILES)	% of control remaining
O=C(/C=C/c1cn(C2OC(CO)C(O)C2O)c(=O)[nH]c1=O)NCCCCCCNC(=O)C(F)(F)F (stereo not shown) [CBK201231]	147.703
O=C(c1ccc2ncsc2c1)N1CCN(S(=O)(=O)c2ccc(C(F)(F)F)cc2)CC1 [CBK295285]	94.0044
O=C(O)c1ccc(NC(=O)c2cc(S(=O)(=O)N3CCCCC3)cs2)cc1 [CBK265722]	102.126
CN(C)S(=O)(=O)c1cccnc1OCC(O)CNC(C)(C)C (stereo not shown) [CBK058059]	77.8563
COCc1cc(C)nc(OCC(=O)N2CCCCC2)c1C#N [CBK270228]	124.064
CC1CN(c2cc(CNc3ncccc3Cl)ccn2)CCO1 (stereo not shown) [CBK306456]	48.3722
CCOC(=O)N1CCN(C(=O)CCC(=O)O)CC1 [CBK287075]	110.955
CCNC(=O)c1ccc(-n2cccn2)c(C#Cc2cccnc2)c1 [CBK283150]	83.5135
Cc1ccc(SCCC(=O)NC(CCC(=O)O)C(=O)O)cc1 (stereo not shown) [CBK295173]	120.175
CCOc1ccc(CN2CC3CCCN3C[C@H]2C)cc1 (stereo partly shown) [CBK285422]	107.713
COc1ccc(NC(=O)c2ccc3nsnc3c2)cc1 [CBK263160]	78.3318
O=S1(=O)CC(OS(=O)(=O)c2ccc(Cl)cc2)C(OS(=O)(=O)c2ccc(Cl)cc2)C1 (stereo not shown) [CBK262049]	92.319
CS(=O)(=O)Nc1nccnc1N1CCN(C(=O)c2ccno2)CC1 [CBK048861]	74.591
CCC(C)(C)c1ccc(S(=O)(=O)N2CCN(Cc3c(C)nn(C)c3C)CC2)cc1 [CBK062835]	81.6856
OCCNc1ncnc2c1ncn2Cc1ccccc1 [CBK287933]	105.759
Cc1nn(C)cc1-c1cncn1CC1(N(C)C)CCC(C)CC1 (stereo not shown) [CBK281799]	109.009
Cc1nc(CCNC(=O)C2CC(c3cccc(F)c3)=NO2)cs1 (stereo not shown) [CBK305798]	57.3606
Cc1noc2nc(C3CCN(C(=O)C4CC4)CC3)cc(C(F)F)c12 [CBK285306]	121.21
c1cnc(N2CCN(CC3CC3)CC2)c(OCCN2CCOCC2)n1 [CBK082909]	104.492
O=C(c1ccc[nH]1)N1CCc2ccccc21 [CBK200285]	82.646
O=C(NCc1c(F)cccc1F)c1ccc(-c2ccc(OC(F)(F)F)cc2)nc1 [CBK161007T]	69.9285

Structure (SMILES)	% of control remaining
O=C(Cn1nnc2ccccc2c1=O)N1CCCC(C(F)(F)F)C1 (stereo not shown) [CBK305900]	49.8124
COc1ccc(C2(C(=O)NCCCN3CCN(C)CC3)CC2)cc1 [CBK149822]	89.3242
Cc1nc(C2(O)CCCN(C3CCCC3)CC2)sc1COc1ccc(Cl)cc1 (stereo not shown) [CBK285940]	83.0929
CN(c1ncc(-c2ccccc2)cc1C(=O)NCc1cccnc1)S(C)(=O)=O [CBK076507]	62.7727
COc1ccc(C(=O)Nc2c(C)nn(C)c2N2CCNCC2)cc1 [CBK050306T]	99.4959
Cn1ccnc1C1(O)CCN(C(=O)Nc2ccccc2Cl)CC1 [CBK282278]	65.0001
CCC(CO)Nc1nccnc1-c1cccc(C(=O)N2CCN(C)CC2)c1 (stereo not shown) [CBK037087]	133.735
COc1ccc(-c2cccc(C3CCCN(C(=O)c4ccc(F)cc4)C3)n2)cc1 (stereo not shown) [CBK286107]	101.451
COc1cccc(-c2noc(C3CCN(CCc4ccc(F)cc4)CC3)n2)c1 [CBK051461]	96.4123
O=C(Nc1ccc(S(=O)(=O)Nc2ncccn2)cc1)c1cc([N+](=O)[O-])ccc1Cl [CBK263717]	121.235
O=C(CNC(=O)c1ccc(Br)cc1)NC1CCCC1 [CBK269591]	99.3129
O=C(NCc1ccco1)c1ccc(-c2ccoc2)nc1 [CBK156279]	99.7082
CCOC(=O)c1c(NC(=O)c2ccccc2C(=O)O)sc2c1CCCC2 [CBK116364]	96.2712
CC(C)c1nccn1-c1ccc(NC(=O)CCCn2ccnc2)cc1 [CBK281380]	94.3997
CCOC(=O)c1ccc(-c2nccnc2Oc2cccc(OC)c2)cc1 [CBK107115]	94.248
CS(=O)(=O)c1ccc(Cn2ccnc(N3CCC(Sc4ccccc4)CC3)c2=O)cc1 [CBK144444]	87.1596
O=C(CCn1cnc2ccccc21)NNC(=O)Nc1cccc(C(F)(F)F)c1 [CBK269093]	99.7026
Cc1nccn1CCNC(=O)c1cc(C2CCCCC2)no1 [CBK283295]	107.778
COc1cc(Cn2ncc(N3CCCCC3)cc2=O)cc(OC)c1 [CBK307662]	95.9701
Nc1nonc1-c1cccnc1 [CBK006120]	92.0778
O=C(O)CC1S/C(=N/N=C2/C(=O)Nc3ccccc32)N(c2ccc(O)cc2)C1=O (stereo not shown) [CBK263723]	96.2767

Structure (SMILES)	% of control remaining
O=C(CCc1nc(-c2ccccc2F)no1)Nc1ccccc1[N+](=O)[O-] [CBK268341]	99.8734
CNS(=O)(=O)c1ccc2c(c1)CCN2C(=O)C1C2CCCCC21 (stereo not shown) [CBK281521]	99.8195
COc1cccc(C2CCCN2C(=O)CC2CCN(C(=O)CC3CCCCC3)CC2)c1 (stereo not shown) [CBK286264]	99.9745
CCCc1nc(CN2CCN(c3ccc4nncn4n3)CC2)cs1 [CBK305330]	75.5424
Nc1ncc(-c2ccc(Cl)cc2)nc1-c1ccc(N2CCOCC2)cc1 [CBK063953]	81.9331
CSc1nnc(CC2CCN(C(=O)c3cc(C)on3)CC2)n1C [CBK307481]	74.8331
Cc1ccc(-c2nn(CCC#N)cc2C(=O)N2CCOCC2)cc1 [CBK305939]	7.542
CC(C)C(=O)NC(NC(=S)Nc1cccc2cccnc12)C(Cl)(Cl)Cl (stereo not shown) [CBK261051]	89.866
CC(=O)N[C@H]1CC[C@]2(C)CCC([C@H](C)C(=O)NCCN3CCOCC3)[C@H](O)[C@H]2[C@@H]1C (stereo partly shown) [CBK289434]	87.1246
Oc1ccccc1CN1CCN(Cc2ccccc2O)C1c1ccccc1Br [CBK262050]	92.304
Cc1cccc2sc(NC(=O)c3ccccc3)nc12 [CBK287300]	74.2906
O=C(Nc1ccc2n(c1=O)C[C@@H]1CNC[C@H]2C1)c1ccc(F)cc1 [CBK289078]	95.8656
CS(=O)(=O)c1ccc(C(=O)N(Cc2ccccc2)c2ccc(S(=O)(=O)N3CCOC3=O)cc2)cc1 [CBK024590]	95.9283
C#CC1(NC(=O)NS(=O)(=O)c2ccc(C)cc2)CCCCC1 [CBK028805]	98.5879
Cc1c(F)cccc1CNCCNC(=O)OC(C)(C)C [CBK056700]	101.225
CN(C1CCCCC1)S(=O)(=O)c1cc(Cl)ccc1Cl [CBK261744]	96.1311
CCCn1ncc(C(=O)N2CCc3c([nH]c4ccccc34)C2C)c1C (stereo not shown) [CBK281546]	99.3378
CC(C)NC(=O)c1cc([C@H]2CC[C@H](CNC(=O)CN3CCCC3)CC2)nc2ccccc12 [CBK285861]	97.5989
O=C(O)Cn1c2ccccc2c2nc3ccccc3nc21 [CBK263649]	67.8281
Fc1cnc(N2CCCC3(CCOC3)C2)nc1N1CCOCC1 (stereo not shown) [CBK307131]	72.039
CCOC(=O)C1(O)CCN(c2ccc(C#N)cc2F)CC1 [CBK304836]	67.4612

Structure (SMILES)	% of control remaining
NNC(=O)CCn1c2ccc(Cl)cc2c2cc(Cl)ccc21 [CBK261413]	95.2441
CCN1CCN(c2ccc(NC(=O)Cn3cnc4c(=O)n(C)c(=O)n(C)c43)cc2Cl)CC1 [CBK269535]	94.99
CCCNS(=O)(=O)c1cc(C(=O)O)ccc1OC [CBK287152]	100.463
O=C(CSc1nc(-c2ccccc2)cc(=O)[nH]1)NCc1ccccc1 [CBK287734]	54.9077
Cc1csc(C(Cc2cccs2)NC(=O)Cc2ccccn2)n1 (stereo not shown) [CBK285005]	103.958
OCCC1CNCCN1CC1CCCCC1 (stereo not shown) [CBK270115]	88.9875
Cc1cc2ccccc2n2c(=O)n(CC(=O)N3CCCCCC3)nc12 [CBK283883]	93.3148
Cc1ccccc1S(=O)(=O)Nc1nccnc1-c1ccc2c(c1)OCO2 [CBK050941]	97.5657
COCCc1nsc(N2CCCC(c3nccs3)C2)n1 (stereo not shown) [CBK305110]	69.2981
CN(CCN1CCCCC1)C(=O)c1cc2c([nH]1)CCCC2 [CBK281836]	103.708
Cc1cccc(-n2cnc3cc(C(=O)NCc4cccnc4)ccc32)c1 [CBK294455]	107.223
O=C1CC(c2ccc(C(=O)O)cc2)c2sccc2N1 (stereo not shown) [CBK287119]	96.163
CCCNS(=O)(=O)c1ccc(OCC(=O)N2CCN(C)CC2)c(C)c1 [CBK270169]	82.7723
O=C1NC/C=C/CC2(CCN(C(=O)CCc3cccnc3)CC2)C(=O)NCCOc2ccccc21 [CBK292007]	94.7262
Nc1ccc(Sc2nc3ccccc3nc2C(F)(F)F)cc1 [CBK089560]	90.4739
Cc1ccccc1-n1ncc2c(=O)n(CC(=O)Nc3ccccc3)cnc21 [CBK287689]	73.1086
O=C(COc1ccccc1)Nc1ccccc1CO [CBK263596]	82.4776
O=c1[nH]cnc2c1cnn2Cc1ccccc1Cl [CBK287999]	58.5045
COc1ccc2[nH]c(=O)c(CNc3ccc(CCc4nc5ccccc5n4C)cc3)cc2c1 [CBK286162]	82.7447
